Data as given in PubChem BioAssay AID1347165 (National Center for Advancing Translational Sciences (NCATS), 2019).
About 5,700 (2.6%) of roughly 220,000 compounds were called active. The shares of active, inactive and inconclusive entries below differ from those in the screen. The call rests on the fitted dose curve; in most records, active means well fitted inhibition curve with a large enough effect; inconclusive means small, poorly fitted or top-dose-only effect; inactive means no such curve, though single readings can be large or run the other way. A potency beside an inconclusive call is a rough fit, not a confirmed value.
Further: nearly all actives have a fitted effect of over 70% in size.
Potency means the concentration at half of the fitted maximal effect; tags describe the fitted curve by direction and shape.
Wherever activity change, negative = inhibition is given: 0% is about no effect.

What follows are compounds tested against Lysine-specific demethylase 5B (Homo sapiens) (UniProt Q9UGL1) (assay: Primary screen for KDM5B Histone Demethylases FDH-coupled qHTS). Details: FDH-coupled NADH fluorescence (FDH is formaldehyde dehydrogenase); activity change, negative = inhibition: at 57.7 µM (top of the series) unless noted.
Chain of UniProt Q9UGL1 (Q9UGL1 whole entry, looked up): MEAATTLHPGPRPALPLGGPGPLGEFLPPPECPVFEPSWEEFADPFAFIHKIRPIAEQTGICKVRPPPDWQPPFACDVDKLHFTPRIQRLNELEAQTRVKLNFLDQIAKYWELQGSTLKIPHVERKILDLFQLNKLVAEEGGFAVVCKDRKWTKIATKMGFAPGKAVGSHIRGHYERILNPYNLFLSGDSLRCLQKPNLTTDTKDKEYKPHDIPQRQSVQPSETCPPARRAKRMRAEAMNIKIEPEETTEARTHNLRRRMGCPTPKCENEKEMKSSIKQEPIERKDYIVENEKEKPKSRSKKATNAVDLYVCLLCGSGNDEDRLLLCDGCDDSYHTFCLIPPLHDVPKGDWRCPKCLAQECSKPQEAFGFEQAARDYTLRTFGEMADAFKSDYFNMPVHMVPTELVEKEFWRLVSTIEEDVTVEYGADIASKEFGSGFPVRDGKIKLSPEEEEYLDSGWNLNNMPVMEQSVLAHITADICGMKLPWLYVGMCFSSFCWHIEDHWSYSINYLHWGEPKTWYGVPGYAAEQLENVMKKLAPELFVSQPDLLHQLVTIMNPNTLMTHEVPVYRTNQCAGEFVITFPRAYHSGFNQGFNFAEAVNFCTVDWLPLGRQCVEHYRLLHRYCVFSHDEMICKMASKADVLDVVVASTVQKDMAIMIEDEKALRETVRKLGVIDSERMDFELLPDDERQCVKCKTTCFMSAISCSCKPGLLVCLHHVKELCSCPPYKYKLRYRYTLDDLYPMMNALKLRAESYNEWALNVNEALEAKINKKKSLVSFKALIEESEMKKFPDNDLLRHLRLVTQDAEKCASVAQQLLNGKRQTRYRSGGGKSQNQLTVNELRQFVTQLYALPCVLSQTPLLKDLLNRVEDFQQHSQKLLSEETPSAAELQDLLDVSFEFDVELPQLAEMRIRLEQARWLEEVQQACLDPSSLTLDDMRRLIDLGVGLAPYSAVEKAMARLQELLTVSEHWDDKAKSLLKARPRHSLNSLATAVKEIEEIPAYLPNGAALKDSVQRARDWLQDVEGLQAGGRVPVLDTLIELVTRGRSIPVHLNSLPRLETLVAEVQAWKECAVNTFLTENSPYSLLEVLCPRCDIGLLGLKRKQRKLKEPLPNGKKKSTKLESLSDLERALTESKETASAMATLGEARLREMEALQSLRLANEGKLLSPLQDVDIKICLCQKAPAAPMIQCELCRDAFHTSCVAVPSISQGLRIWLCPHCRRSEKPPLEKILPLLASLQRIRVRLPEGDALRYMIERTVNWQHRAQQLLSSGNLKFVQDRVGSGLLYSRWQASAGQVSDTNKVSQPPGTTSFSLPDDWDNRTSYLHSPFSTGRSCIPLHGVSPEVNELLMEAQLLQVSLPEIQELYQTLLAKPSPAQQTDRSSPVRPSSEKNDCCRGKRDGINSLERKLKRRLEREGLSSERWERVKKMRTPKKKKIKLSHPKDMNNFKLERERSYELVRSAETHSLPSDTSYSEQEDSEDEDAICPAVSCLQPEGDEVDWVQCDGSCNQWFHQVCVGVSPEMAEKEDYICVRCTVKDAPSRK
In short: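 Here, H3K4me3 peptide (12.5 µM in substrate mix) is demethylated by KDM5BΔAP, 200 nM final, after 10 min compound exposure. Formaldehyde product is coupled through FDH (0.25 U/mL in mix) to NADH fluorescence; 30-min ΔRFU feeds dose-response curves.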
`O=C(NCCc1noc(C2CC2)n1)C1(c2ccccc2)CC1` was tested, and the “activity change, negative = inhibition” value was inactive: 10.9%. In the case of `CCN(c1ccccc1)S(=O)(=O)c1ccc2[nH]c(=O)c(=O)[nH]c2c1`, the Potency is reported as inconclusive: 39.8 µM [inhibitor, single point]. `Cc1cc(=O)n(CC(=O)NCc2ccccc2Br)c(N(C)Cc2ccccc2)n1` was tested, and the Potency was inconclusive: 22.4 µM [inhibitor, single point]. `COc1cc(/C=N/NC(=O)c2cc[n+]([O-])cc2)ccc1O` was tested, and the Potency was inconclusive: 14.1 µM [inhibitor, partial curve, poor fit]. For `Oc1ccccc1C1=NN(c2ccccc2)C(c2ccc(F)cc2)C1` (stereo unspecified), the Potency was inconclusive: 28.2 µM [inhibitor, partial curve, poor fit]. `COc1ccccc1C(NC(=O)CSc1c(Cl)cccc1Cl)c1nccn1C` (stereo unspecified) was tested, and the “activity change, negative = inhibition” value was inactive: 11.1%. In the case of `NC(=O)c1cccc(-c2ccc3c(n2)CN(Cc2ccc(F)cc2)C(=O)CO3)c1`, the Potency is reported as active: 35.5 µM. `COc1ccccc1Nc1ncc2c(n1)CN(C(=O)c1ccc(Oc3ccccc3)cc1)CCN2` was tested, and the Potency was inconclusive: 28.2 µM [inhibitor, partial curve, poor fit]. With `Cc1cc(C)cc(OCC(=O)N(Cc2ccc(C)o2)C2CCS(=O)(=O)C2)c1` (stereo unspecified) the activity change, negative = inhibition was inconclusive: -34.5% [inhibitor]. In the case of `COc1cc(/C=C/c2ccc3cccc(O)c3n2)ccc1O`, the Potency is reported as inconclusive: 39.8 µM [inhibitor, single point]. With `CCCN(CCC)CC(O)Cn1cc(/C=C/C(=O)c2ccc(OCC)cc2)c2ccccc21` (stereo unspecified) the Potency was inconclusive: 15.8 µM [inhibitor, partial curve, poor fit]. With `COc1cccc(NC(=O)c2ccc3c(c2)NC(C)(CCCCN2CCOCC2)CO3)c1` (stereo unspecified) the Potency was inconclusive: 25.1 µM [inhibitor, partial curve, poor fit]. `N#Cc1ccc(COC(=O)c2cc3ccccc3[nH]2)cc1` was tested, and the Potency was inconclusive: 39.8 µM [inhibitor, single point]. For `CC[C@@]1(C(=O)O)C[C@H](C(=O)NCc2ccncc2)[C@H](c2ccc(OC)cc2)N1C`, the Potency was inconclusive: 20 µM [inhibitor, partial curve, poor fit]. In the case of `O=C(Nc1ccc(Br)cc1Cl)c1cc(=O)c2ccccc2o1`, the “activity change, negative = inhibition” value is reported as inactive: 7.93%. In the case of `CCc1ccc(/C=C/C(=O)c2ccc(CC(=O)O)cc2)cc1`, the “activity change, negative = inhibition” value is reported as inactive: 13.6%. `N#Cc1nccnc1N1CCN(C2CCC3(CCNCC3)CC2)CC1` was tested, and the Potency was active: 22.4 µM. For `COCCN1CCCC1c1nc(C2CN(C(=O)NCc3ccco3)C2)no1` (stereo unspecified), the Potency was inconclusive: 17.8 µM [inhibitor, single point]. With `COc1ccc(-c2noc(CCC(=O)NCc3ccc(OC)cc3OC)n2)cc1` the Potency was inconclusive: 31.6 µM [inhibitor, single point]. `Cc1ccc(S(=O)(=O)NC[C@H]2O[C@@H](CO)[C@@H](O)[C@H]2N2CCN(c3ccccn3)CC2)cc1` was tested, and the Potency was inconclusive: 31.6 µM [inhibitor, partial curve]. With `Cc1ccc(-c2nccn3cc(C(=O)NCc4nc5ccccc5n4C)nc23)cc1` the Potency was inconclusive: 22.4 µM [inhibitor, partial curve]. With `O=C(N/N=C/c1cc([N+](=O)[O-])ccc1O)c1cccc2cc[nH]c12` the Potency was inconclusive: 12.6 µM [inhibitor, partial curve, poor fit]. With `O=C(Cn1cccc1-c1nc(-c2ccc(F)cc2)no1)NC1CCCC1` the “activity change, negative = inhibition” value was inactive: -9.19%. `COCCN1CCCC2(CCN(C(=O)c3ncoc3C3CC3)C2)C1=O` (stereo unspecified) was tested, and the “activity change, negative = inhibition” value was inactive: 46.5%. In the case of `COc1cc(Cl)cc2cc(C(=O)N3CCOCC3)c(=O)oc12`, the Potency is reported as inconclusive: 10 µM [inhibitor, partial curve, poor fit]. In the case of `Cc1onc(C(=O)N2C[C@@H](Oc3cccnc3)C[C@H]2C(N)=O)c1Cn1cccn1`, the “activity change, negative = inhibition” value is reported as inactive: -19.9%. With `Cc1ccc(-c2cc(O)c3c(c2)CN(C(=O)[C@@H](N)Cc2cnc[nH]2)CCO3)cc1` the Potency was inconclusive: 14.1 µM [inhibitor, partial curve, poor fit]. For `Cc1nc(-c2ccccc2F)sc1C(=O)NC1C=CS(=O)(=O)C1` (stereo unspecified), the “activity change, negative = inhibition” value was inactive: -14.4%. `O=C(NCc1ccc(F)cc1)C1CCCN(C(=O)NCc2ccccc2)C1` (stereo unspecified) was tested, and the “activity change, negative = inhibition” value was inactive: -3.98%. For `Cn1c(Oc2ccc3cc(Br)ccc3c2)c(C#N)c(=O)n(C)c1=O`, the Potency was inconclusive: 25.1 µM [inhibitor, single point]. With `O=C(CSCc1cnn(-c2ccccc2)c1-n1cccc1)Nc1ccc(F)cc1F` the Potency was inconclusive: 12.6 µM [inhibitor, partial curve, poor fit]. In the case of `C=C(CS(=O)(=O)c1ccc(C)cc1)S(=O)(=O)c1ccc(C)cc1`, the Potency is reported as inconclusive: 20 µM [inhibitor, partial curve, poor fit]. `O=C(Cc1ccc(Br)cc1)NCc1nnc2ccc(-c3ccc(F)cc3)nn12` was tested, and the Potency was inconclusive: 28.2 µM [inhibitor, partial curve, poor fit]. `Cc1ccc(CN(C(=O)COc2ccc(Br)cc2)c2ccccn2)o1` was tested, and the Potency was inconclusive: 12.6 µM [inhibitor, partial curve, poor fit]. `CCN(CC)C(=S)SC/C(=N/Nc1ccc(Br)cc1)c1ccccc1` was tested, and the “activity change, negative = inhibition” value was inactive: -19.5%. `Cc1ccc(-c2cc(C(=O)NC3CCC(C)CC3)c3ccccc3n2)cc1C` (stereo unspecified) was tested, and the “activity change, negative = inhibition” value was inactive: 23%. For `O=c1[nH]c(=O)n(Cc2ccco2)c2nccc(-c3ccc(-c4ccccc4)cc3)c12`, the Potency was inconclusive: 25.1 µM [inhibitor, partial curve, poor fit]. In the case of `Cc1ccccc1CSc1nc2cccnc2n1Cc1ccc(C(=O)NCCc2cccs2)cc1`, the Potency is reported as inconclusive: 25.1 µM [inhibitor, partial curve, poor fit]. In the case of `COc1ccc(C2NC(=O)N(C)C3=C2C(=O)N(c2ccc(C)cc2)C3)cc1` (stereo unspecified), the activity change, negative = inhibition is reported as inconclusive: -44.1% [inhibitor]. In the case of `CCc1ccc(S(=O)(=O)c2nnn3c2nc(NCc2ccccc2OC)c2cc(Cl)ccc23)cc1`, the Potency is reported as inconclusive: 1 µM [inhibitor, full curve, poor fit]. `COC(=O)[C@@H]1Cc2nc[nH]c2CN1Cc1cc2ccccc2o1` was tested, and the Potency was inconclusive: 28.2 µM [inhibitor, single point]. With `O=C(CN1CCCC(c2nccn2Cc2cscn2)C1)N1CCOCC1` (stereo unspecified) the “activity change, negative = inhibition” value was inactive: 26.6%. In the case of `CCCCc1cc(=O)oc2c(C)c(OC(C)C(=O)NCc3ccccn3)ccc12` (stereo unspecified), the Potency is reported as inconclusive: 31.6 µM [inhibitor, single point]. In the case of `Cc1ncsc1C(=O)N1CCNc2cnc(Nc3cccc(F)c3)nc2C1`, the “activity change, negative = inhibition” value is reported as inactive: -19.2% [at 86.2 µM]. With `CC1CCC(NC(=O)C2CCN(c3cc(C(F)(F)F)ncn3)CC2)CC1` (stereo unspecified) the Potency was inconclusive: 25.1 µM [inhibitor, single point]. With `COc1ccc(-c2noc([C@@H]3CCCN3C(=O)c3ccsc3)n2)cc1OC` the Potency was inconclusive: 28.2 µM [inhibitor, single point]. With `COc1ccccc1-c1cc(C(=O)N/N=C/c2ccc(C)o2)c2ccccc2n1` the Potency was inconclusive: 35.5 µM [inhibitor, single point]. In the case of `CN1CCN(c2nc3nnnn3c3sc4c(c23)CCN(Cc2ccccc2)C4)CC1`, the Potency is reported as inconclusive: 25.1 µM [inhibitor, single point]. `C=C(Cl)COC(=O)c1ccc2[nH]c(C)c(C)c2c1` was tested, and the “activity change, negative = inhibition” value was inactive: -31.7%. For `CCOc1ccc(OCC)c(NC(=O)C2CCN(c3cnccn3)CC2)c1`, the Potency was inconclusive: 28.2 µM [inhibitor, partial curve, poor fit]. In the case of `CN1Cc2nc(-c3ccc4c(c3)OCO4)ccc2OCC1=O`, the Potency is reported as active: 31.6 µM. With `O=C(NCCc1cccs1)c1cc2n(n1)CC(c1ccc3c(c1)OCO3)OC2` (stereo unspecified) the Potency was inconclusive: 35.5 µM [inhibitor, partial curve, poor fit]. For `CC(NS(=O)(=O)c1ccc2c(c1)CCN2C(=O)N1CCCC1)C(=O)Nc1ccccc1` (stereo unspecified), the “activity change, negative = inhibition” value was inactive: 18.2%. `Cc1cc(CNC(=O)c2nccnc2N)ccc1F` was tested, and the Potency was inconclusive: 22.4 µM [inhibitor, partial curve, poor fit]. In the case of `Cn1cnnc1C1CCCN(S(=O)(=O)N2CCCCC2)C1` (stereo unspecified), the “activity change, negative = inhibition” value is reported as inactive: 15.6%. In the case of `COc1ccc(C(=O)N[C@@H]2C=C[C@@H](c3c(C)nn(-c4ccc(C)c(Cl)c4)c3C)C2)cc1`, the Potency is reported as inconclusive: 28.2 µM [inhibitor, single point]. For `O=C(C1CCC1)N1CCN(Cc2ccccc2)CC(O)C1` (stereo unspecified), the Potency was inconclusive: 12.6 µM [inhibitor, partial curve]. In the case of `Cc1ccc(NC(=O)N2CCc3[nH]c4ccc(F)cc4c3C2)cc1C`, the Potency is reported as inconclusive: 17.8 µM [inhibitor, single point]. With `Cc1nc2sc3c(c2c2nc(C(=O)NCc4ccccc4)nn12)CC(C)(C)OC3` the Potency was inconclusive: 1.78 µM [inhibitor, full curve, poor fit]. With `CN(CCC#N)c1ccc(/C=N/NC(N)=S)cc1` the Potency was inconclusive: 22.4 µM [inhibitor, partial curve, poor fit]. For `CSc1ccccc1NC(=O)CN(C)C(=O)c1cc(S(=O)(=O)N2CCOCC2)ccc1Cl`, the “activity change, negative = inhibition” value was inactive: -3.99%. For `Cc1ccccc1-c1noc(COc2ccc3c(C)cc(=O)oc3c2)n1`, the Potency was inconclusive: 28.2 µM [inhibitor, partial curve, poor fit]. For `N#CC1(Br)C(=N)c2ccccc2CC12CCCCC2` (stereo unspecified), the Potency was inconclusive: 1.78 µM [inhibitor, full curve, poor fit]. For `N#CCc1c(C#N)c(N)nc(NCc2ccccc2)c1C#N`, the Potency was inconclusive: 25.1 µM [inhibitor, partial curve, poor fit]. For `Cc1c(B2OC(C)(C)C(C)(C)O2)cnn1C`, the “activity change, negative = inhibition” value was inactive: 16.9%. With `Cc1cccc(NC(=O)c2ccc3c(c2)N(C)C2CCCN2C3=O)c1C` (stereo unspecified) the Potency was inconclusive: 22.4 µM [inhibitor, partial curve, poor fit].
